Results published in the RNAGym collection of RNA variant scans (doi:10.1093/nar/gkz1192).
The source gives no read counts; variants with many changes may rest on few reads.

B1: CPEB3 Ribozyme (parent)
chain: UAACAGGGGGCCACAGCAGAAGCGUUCACGUCGCAGCCCCUGUCAGAUUCUGGUGAAUCUGCGAAUUCUGCUGUAUAUCUC

Variants of: B1
Assay: self-cleavage, relative activity (ratio to wild type); higher = more cleavage; in vitro, sequencing
Summary of the method: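 Barcoded CPEB3 ribozyme mutants, produced by rounds of error-prone PCR, self-cleaved while being transcribed with T7 RNA polymerase for 5 hours at 37°C and during a subsequent 15 min DNase I step before EDTA was added. Sequencing of template-switched cDNA on Illumina gave cleaved and total reads, and DNA sequencing assigned barcodes to variants. Each variant's relative activity is its cleaved/total read fraction divided by the unmutated ribozyme's fraction, averaged across three batches. A variant needed a minimum of 5 reads.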

| Variant | self-cleavage |
| --- | --- |
| U26C C34U U54C U72C | 0.07 |
| U26C C37U A47G U49C U60C | 0.16 |
| U26C C38U C44G C59G | 0.08 |
| U26C C38U U41C | 0.46 |
| U26C C39A U60C | 0.28 |
| U26C C39U A57G A65G U72G U78C | 0.09 |
| U26C C39U U41C | 0.37 |
| U26C C40A A45U A57G U60G | 0.18 |
| U26C C40U U67C | 0.15 |
| U26C C59A U80G | 0.2 |
| U26C C68A A75G U78A | 0 |
| U26C G30A U58C | 0.16 |
| U26C G30C U41A A45U | 0.32 |
| U26C G33A A45U A64G A65G | 0.23 |
| U26C G33A U41A U54C | 0.14 |
| U26C G33A U41C C81A | 0.2 |
| U26C G33A U58A A77G | 0.05 |
| U26C G33U A45G U76C | 0.19 |
| U26C G36A A45U U67C | 0.02 |
| U26C G36A C40U U48C | 0.14 |
| U26C G36A G55U A65G U74G | 0.07 |

| Variant | self-cleavage |
| --- | --- |
| U26C G36C C44U | 0.15 |
| U26C G36U U72C | 0.16 |
| U26C G42C U72C U78G U80C | 0.1 |
| U26C G46A A47G A57G A64G U69C | 0.18 |
| U26C G46A A47G U58C | 0.08 |
| U26C G46A U54C U60C | 0.23 |
| U26C G52A U74G | 0.94 |
| U26C G52U A57G | 0.43 |
| U26C G63A U78C | 0.3 |
| U26C G63U U78C U80C | 0.42 |
| U26C G73A A75U U80A | 1.16 |
| U26C G73A U76A | 1.13 |
| U26C G73U A77G | 0.99 |
| U26C U31A A47C | 0.17 |
| U26C U31A A47G U60G | 0.06 |
| U26C U31A C68U A75G | 0.06 |
| U26C U31C A35U U43C U49A A57G G73A | 0.25 |
| U26C U31C C44U | 0.16 |
| U26C U31C U51C A64U | 0.14 |
| U26C U31G A75G | 0.08 |
| U26C U31G U41A A56G | 0.27 |

| Variant | self-cleavage |
| --- | --- |
| U26C U41A A56G U67C U76C | 0.12 |
| U26C U41A A56U U58A U72C | 0.29 |
| U26C U41A A64G U72C | 0.23 |
| U26C U41A A64U G70C U80C | 0.19 |
| U26C U41C A45G A47G A56U | 0.08 |
| U26C U41C A45U U51A U58C U69C | 0.06 |
| U26C U41C A47G C50U | 0.25 |
| U26C U41C U54C U67C | 0.09 |
| U26C U43A A65G U67C | 0.15 |
| U26C U43A U51A A57G | 0.1 |
| U26C U43C A57G | 0.29 |
| U26C U43C C62U U69C U74C | 0.15 |
| U26C U43C G46A U54C | 0.04 |
| U26C U43C U49C A57G | 0.08 |
| U26C U43C U49C U74A | 0.29 |
| U26C U43C U51G | 0.88 |
| U26C U43C U60C U72A | 0.13 |
| U26C U43C U60C U72C | 0.27 |
| U26C U43G U49C U78C | 0.31 |
| U26C U48A C50G U51C A64G | 0.1 |
| U26C U48C A56G G61A U67C | 0.06 |

| Variant | self-cleavage |
| --- | --- |
| U26C U48C A75U U80C | 0.15 |
| U26C U49A U72A | 0.17 |
| U26C U49C A56G U67A U76C | 0.09 |
| U26C U49C G55A | 0.08 |
| U26C U49C G55A U69A A77C | 0.14 |
| U26C U49C G73U U76C | 0.23 |
| U26C U49C U58A | 0.16 |
| U26C U49G G55C | 0.18 |
| U26C U51A A64G | 0.35 |
| U26C U51A C81U | 0.46 |
| U26C U51C A64U | 0.09 |
| U26C U51C U54G U67C | 0.11 |
| U26C U51C U80C | 0.33 |
| U26C U54C U67C | 0.13 |
| U26C U54C U69A | 0.24 |
| U26C U58C U60C A65G | 0.14 |
| U26C U58C U78A | 0.26 |
| U26C U58G U66C U72A | 0.11 |
| U26C U60A A77C | 0.46 |
| U26C U60A U66C | 0.07 |
| U26C U60A U72C U80A | 0.29 |
